The supplement of paper PMC12217912
The list shows a part of the results. Sequences were assembled here from the parent chain. Inactive controls read about 0.05.

B1: TEV protease; numbered along this chain (parent)
chain: MGESLFKGPRDYNPISSSICHLTNESDGHTTSLYGIGFGPFIITNKHLFRRNNGTLVVQSLHGVFKVKDTTTLQQHLVDGRDMIIIRMPKDFPPFPQKLKFREPQREERICLVTTNFQTKSMSSMVSDTSCTFPSGDGIFWKHWIQTKDGQCGSPLVSTRDGFIVGIHSASNFTNTNNYFTSVPKNFMELLTNQEAQQWVSGWRLNADSVLWGGHKVFMVKPEEPFQPVKEATQL

Variants of: B1
Assay: raw area under fraction-flipped curve 0-4 h after induction (AUC4h, not background-subtracted), DNA-recorder readout of cleavage of the substrate (dimensionless); higher = more cleavage of the substrate by the protease variant
Settings: temperature: 34 °C; time window: 0-4 h after rhamnose induction
Experimental: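 In vivo DNA recorder in E. coli TOP10(DE3) ΔrhaA at 34 °C. Each TEVp single-site mutant (parent TEVp 0) is paired with a single-site variant of the 7-mer TEVs (canonical ENLYFQ|S). The substrate sits between flexible linkers in a Bxb1-sfGFP-TEVs-SsrA fusion, so cleavage stabilises Bxb1 and speeds flipping of a recombination array, read by NGS. The value is the raw area under the fraction-flipped curve over 0-4 h after rhamnose induction (AUC4h), with ≥20 reads per time point. It is not background-subtracted; inactive controls average about 0.047.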
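Also: Bxb1 expression induced with 0.2% (w/v) L-rhamnose at OD600 near 0.5, cultures sampled hourly, flipped fraction per protease–substrate barcode pair counted by paired-end Illumina sequencing.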

Variant	area with substrate ENLYFQA	area with substrate ENLYFQC	area with substrate ENLYFQG	area with substrate ENLYFQI	area with substrate ENLYFQK	area with substrate ENLYFQL	area with substrate ENLYFQN	area with substrate ENLYFQP	area with substrate ENLYFQR	area with substrate ENLYFQS	area with substrate ENLYFQT	area with substrate ENLYFQV	area with substrate ENLYFQW	area with substrate ENLYFQY	area with substrate ENLYFQH	area with substrate ENLYFQM	area with substrate ENLYFQQ	area with substrate ENLYFQF	area with substrate ENLYFQD
MGESLFKGPRDYNPISSSICHLTNESDGHTTSLYGIGFGPFIITNKHLFRRNNGTLVVQSLHGVFKVKDTTTLQQHLVDGRDMIIIRMPKDFPPFPQKLKFREPQSEERICLVTTNFQTKSMSSMVSDTSCTFPSGDGIFWKHWIQTKDGQCGSPLVSTRDGFIVGIHSASNFTNTNNYFTSVPKNFMELLTNQEAQQWVSGWRLNADSVLWGGHKVFMVKPEEPFQPVKEATQL [R106S]	0.0938	0.109	0.112	0.048	0.0488	0.0659	0.0787	0.0653	0.0618	0.1	0.0663	0.0652	0.0757	0.076	–	–	–	–	–
MGESLFKGPRDYNPISSSICHLTNESDGHTTSLYGIGFGPFIITNKHLFRRNNGTLVVQSLHGVFKVKDTTTLQQHLVDGRDMIIIRMPKDFPPFPQKLKFREPQREERKCLVTTNFQTKSMSSMVSDTSCTFPSGDGIFWKHWIQTKDGQCGSPLVSTRDGFIVGIHSASNFTNTNNYFTSVPKNFMELLTNQEAQQWVSGWRLNADSVLWGGHKVFMVKPEEPFQPVKEATQL [I110K]	0.0562	0.066	0.0603	0.0527	0.0485	0.05	–	0.0507	0.013	0.0568	0.0595	0.0414	0.0508	0.052	0.063	0.0559	0.0665	–	–
MGESLFKGPRDYNPISSSICHLTNESDGHTTSLYGIGFGPFIITNKHLFRRNNGTLVVQSLHGVFKVKDTTTLQQHLVDGRDMIIIRMPKDFPPFPQKLKFREPQREERIDLVTTNFQTKSMSSMVSDTSCTFPSGDGIFWKHWIQTKDGQCGSPLVSTRDGFIVGIHSASNFTNTNNYFTSVPKNFMELLTNQEAQQWVSGWRLNADSVLWGGHKVFMVKPEEPFQPVKEATQL [C111D]	0.0497	0.0674	0.0651	0.0552	0.0632	0.0617	0.0553	–	0.0567	0.0645	0.0501	–	0.0457	0.0612	0.0459	0.0638	–	0.059	–
MGESLFKGPRDYNPISSSICHLTNESDGHTTSLYGIGFGPFIITNKHLFRRNNGTLVVQSLHGVFKVKDTTTLQQHLVDGRDMIIIRMPKDFPPFPQKLKFREPQREERIHLVTTNFQTKSMSSMVSDTSCTFPSGDGIFWKHWIQTKDGQCGSPLVSTRDGFIVGIHSASNFTNTNNYFTSVPKNFMELLTNQEAQQWVSGWRLNADSVLWGGHKVFMVKPEEPFQPVKEATQL [C111H]	0.116	0.106	0.0689	0.0545	–	0.0656	0.0864	–	0.0654	0.114	0.0556	–	0.0622	0.122	–	0.0975	–	–	–
MGESLFKGPRDYNPISSSICHLTNESDGHTTSLYGIGFGPFIITNKHLFRRNNGTLVVQSLHGVFKVKDTTTLQQHLVDGRDMIIIRMPKDFPPFPQKLKFREPQREERICLSTTNFQTKSMSSMVSDTSCTFPSGDGIFWKHWIQTKDGQCGSPLVSTRDGFIVGIHSASNFTNTNNYFTSVPKNFMELLTNQEAQQWVSGWRLNADSVLWGGHKVFMVKPEEPFQPVKEATQL [V113S]	0.0614	0.0799	0.0689	0.0405	0.0404	–	0.0351	–	–	0.0652	0.0461	–	–	–	–	0.0616	–	0.0409	–
MGESLFKGPRDYNPISSSICHLTNESDGHTTSLYGIGFGPFIITNKHLFRRNNGTLVVQSLHGVFKVKDTTTLQQHLVDGRDMIIIRMPKDFPPFPQKLKFREPQREERICLVRTNFQTKSMSSMVSDTSCTFPSGDGIFWKHWIQTKDGQCGSPLVSTRDGFIVGIHSASNFTNTNNYFTSVPKNFMELLTNQEAQQWVSGWRLNADSVLWGGHKVFMVKPEEPFQPVKEATQL [T114R]	0.111	0.128	0.0891	–	0.0657	–	0.105	0.0623	0.082	0.119	0.0695	–	0.071	0.055	0.0968	0.137	0.0664	–	0.0897
MGESLFKGPRDYNPISSSICHLTNESDGHTTSLYGIGFGPFIITNKHLFRRNNGTLVVQSLHGVFKVKDTTTLQQHLVDGRDMIIIRMPKDFPPFPQKLKFREPQREERICLVTTLFQTKSMSSMVSDTSCTFPSGDGIFWKHWIQTKDGQCGSPLVSTRDGFIVGIHSASNFTNTNNYFTSVPKNFMELLTNQEAQQWVSGWRLNADSVLWGGHKVFMVKPEEPFQPVKEATQL [N116L]	0.104	–	–	0.0964	0.0606	0.0582	–	–	0.0681	0.105	0.0605	–	0.0862	0.0618	0.107	0.104	–	–	0.089
MGESLFKGPRDYNPISSSICHLTNESDGHTTSLYGIGFGPFIITNKHLFRRNNGTLVVQSLHGVFKVKDTTTLQQHLVDGRDMIIIRMPKDFPPFPQKLKFREPQREERICLVTTNEQTKSMSSMVSDTSCTFPSGDGIFWKHWIQTKDGQCGSPLVSTRDGFIVGIHSASNFTNTNNYFTSVPKNFMELLTNQEAQQWVSGWRLNADSVLWGGHKVFMVKPEEPFQPVKEATQL [F117E]	0.12	0.113	–	0.0658	–	–	0.074	–	–	0.0887	0.0644	0.0593	0.0686	0.0953	–	0.0782	–	–	–
MGESLFKGPRDYNPISSSICHLTNESDGHTTSLYGIGFGPFIITNKHLFRRNNGTLVVQSLHGVFKVKDTTTLQQHLVDGRDMIIIRMPKDFPPFPQKLKFREPQREERICLVTTNFQTKIMSSMVSDTSCTFPSGDGIFWKHWIQTKDGQCGSPLVSTRDGFIVGIHSASNFTNTNNYFTSVPKNFMELLTNQEAQQWVSGWRLNADSVLWGGHKVFMVKPEEPFQPVKEATQL [S121I]	0.0921	–	0.0993	–	0.066	0.0703	0.075	–	–	0.095	0.0665	0.0723	0.0616	–	0.0869	–	0.0641	0.0822	0.0777
